Assay results: the supplement of paper PMC7826260
Some of the results follow. One pool of 16,384 single-stranded DNAs met each Rep nickase domain in vitro (1 h at 37 °C, 3 µM enzyme); the outer parts of the 90-letter strands are left off. Uncut reads are compared with the no-enzyme pool on a log2 scale; strong cutting gives strongly negative numbers. There is no active / inactive call. Reads are scaled to the total; where an enzyme cuts many sequences, the uncut ones exceed 0.

Experiments:
Test in all cases: uncleaved DNA left, log2 of reads against the no-enzyme library (log2 ratio); higher = less cleavage (more negative = more Rep cleavage of the k-mer); sequences stand for … in CTCGTCCG…ACCGGAGA
[1] = tested on: T1, Rep nickase domain of Muscovy duck circovirus
T1 sequence (protein, residues 1-111, tag omitted): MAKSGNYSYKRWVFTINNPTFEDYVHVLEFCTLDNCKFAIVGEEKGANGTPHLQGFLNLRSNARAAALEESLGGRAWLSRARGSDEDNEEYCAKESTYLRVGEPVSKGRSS
Method: (§1)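 A pool of 90-nt single-stranded DNAs with seven random bases just before the constant AC of the nick site (name = the seven bases) was cut by 3 µM recombinant His6-SUMO-tagged Rep nickase domain (300 nM DNA, 50 mM HEPES pH 8.0, 50 mM NaCl, 1 mM MnCl2, 1 h, 37 °C, three replicates). Uncut DNA was amplified and sequenced.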

[2] = tested on: T2, Rep nickase domain of banana bunchy top virus
T2 sequence (protein, residues 1-94, tag omitted): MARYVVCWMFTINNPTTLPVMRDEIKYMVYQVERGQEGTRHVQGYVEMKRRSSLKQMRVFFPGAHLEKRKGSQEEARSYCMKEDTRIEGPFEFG
Method: as §1

[3] = tested on: T3, Rep nickase domain of cabbage leaf curl virus
T3 sequence (protein, residues 1-116, tag omitted): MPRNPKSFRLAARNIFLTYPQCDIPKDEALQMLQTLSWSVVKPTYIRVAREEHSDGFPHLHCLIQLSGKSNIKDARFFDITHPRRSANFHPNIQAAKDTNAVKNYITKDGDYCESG
Method: as §1

[4] = tested on: T4, Rep nickase domain of chickpea chlorotic dwarf virus
T4 sequence (protein, residues 1-124, tag omitted): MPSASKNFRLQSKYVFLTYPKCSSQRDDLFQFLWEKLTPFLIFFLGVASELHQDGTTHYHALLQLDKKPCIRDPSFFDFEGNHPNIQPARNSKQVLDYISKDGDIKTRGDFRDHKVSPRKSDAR
Method: as §1

[5] = tested on: T5, Rep nickase domain of faba bean necrotic yellows virus
T5 sequence (protein, residues 1-98, tag omitted): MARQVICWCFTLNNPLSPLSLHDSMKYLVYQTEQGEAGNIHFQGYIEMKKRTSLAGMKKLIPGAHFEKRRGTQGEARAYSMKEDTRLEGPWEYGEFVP
Method: as §1

[6] = tested on: T6, Rep nickase domain of maize striate mosaic virus
T6 sequence (protein, residues 1-117, tag omitted): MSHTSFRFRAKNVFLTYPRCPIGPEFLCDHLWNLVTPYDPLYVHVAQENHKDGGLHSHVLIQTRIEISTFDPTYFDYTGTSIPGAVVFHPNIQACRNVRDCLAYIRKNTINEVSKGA
Method: as §1

[7] = tested on: T7, Rep nickase domain of porcine circovirus 2
T7 sequence (protein, residues 2-116, tag omitted): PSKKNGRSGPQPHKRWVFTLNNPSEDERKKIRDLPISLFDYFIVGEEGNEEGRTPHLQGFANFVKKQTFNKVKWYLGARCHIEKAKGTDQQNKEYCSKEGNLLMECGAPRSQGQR
Method: as §1

[8] = tested on: T8, Rep nickase domain of tomato golden mosaic virus
T8 sequence (protein, residues 1-124, tag omitted): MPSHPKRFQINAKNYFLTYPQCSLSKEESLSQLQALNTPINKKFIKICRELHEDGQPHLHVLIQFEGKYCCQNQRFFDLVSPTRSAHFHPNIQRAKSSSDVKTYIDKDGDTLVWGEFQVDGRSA
Method: as §1

[9] = tested on: T9, Rep nickase domain of tomato yellow leaf curl virus
T9 sequence (protein, residues 1-136, tag omitted): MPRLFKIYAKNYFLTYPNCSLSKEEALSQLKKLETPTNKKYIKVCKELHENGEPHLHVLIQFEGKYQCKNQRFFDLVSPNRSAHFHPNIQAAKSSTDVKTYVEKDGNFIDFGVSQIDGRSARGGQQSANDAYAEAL
Method: as §1

[10] = tested on: T10, Rep nickase domain of wheat dwarf virus
T10 sequence (protein, residues 1-137, tag omitted): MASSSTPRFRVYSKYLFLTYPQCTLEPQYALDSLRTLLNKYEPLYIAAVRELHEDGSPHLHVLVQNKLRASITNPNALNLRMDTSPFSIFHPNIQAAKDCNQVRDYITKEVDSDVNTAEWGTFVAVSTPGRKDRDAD
Method: as §1

| Sequence | uncleaved DNA left (log2) [1] | uncleaved DNA left (log2) [2] | uncleaved DNA left (log2) [3] | uncleaved DNA left (log2) [4] | uncleaved DNA left (log2) [5] | uncleaved DNA left (log2) [6] | uncleaved DNA left (log2) [7] | uncleaved DNA left (log2) [8] | uncleaved DNA left (log2) [9] | uncleaved DNA left (log2) [10] |
| --- | --- | --- | --- | --- | --- | --- | --- | --- | --- | --- |
| TCTGTTC | -0.0556 | -0.0466 | 0.0667 | -0.769 | 0.131 | -0.456 | -0.0667 | -0.141 | -0.0235 | -0.135 |
| AAAACCC | -0.0613 | 0.0108 | -0.0646 | -1.03 | 0.0439 | -0.376 | -0.598 | -0.0342 | -0.112 | 0.0138 |
| GGGCACG | 0.0036 | 0.043 | 0.735 | 1.66 | -0.115 | 1.96 | 0.116 | -0.168 | -0.0938 | 0.0955 |
| CCTGTAC | 0.0955 | 0.00576 | -0.0349 | -0.688 | 0.168 | -0.543 | 0.0159 | 0.0143 | 0.00253 | -0.0462 |
| CAATGAC | -0.0173 | -0.0587 | -0.47 | -0.562 | -0.109 | -0.732 | 0.0318 | -0.12 | -0.116 | -0.106 |
| GGAGGGA | 0.148 | 0.199 | 0.755 | 1.41 | 0.131 | 1.5 | 0.259 | 0.181 | 0.039 | 0.175 |
| TAAGCTC | -0.058 | 0.0176 | -2.18 | -2.55 | -0.052 | 0.136 | 0.0716 | -0.199 | -0.0465 | -0.697 |
| CCAGTTA | 0.115 | -0.13 | -0.164 | -1.14 | -0.107 | -0.574 | -0.0176 | -0.0126 | -0.147 | -0.0781 |
| TTATCCC | -0.00915 | 0.0113 | 0.0375 | -0.0321 | -0.0846 | 0.0518 | -0.0132 | -0.0817 | 0.0831 | -0.0123 |
| GCCACTT | 0.117 | 0.0529 | 0.217 | -0.854 | -0.00497 | 0.529 | -0.0836 | -0.0938 | 0.0949 | 0.203 |
| GCGCTCG | 0.045 | 0.0823 | -0.316 | -0.316 | 0.133 | -0.546 | 0.154 | 0.0156 | -0.0309 | -0.0396 |
| AACCGGA | -0.0216 | -0.0295 | 0.148 | 0.225 | -0.00616 | 0.0504 | -0.116 | 0.0614 | -0.0516 | -0.00677 |
| TTCCCTC | -0.0123 | 0.0622 | 0.181 | -0.562 | -0.0278 | -0.216 | -0.506 | -0.0405 | -0.0495 | 0.144 |
| TTTCAAA | 0.0415 | 0.0755 | 0.222 | 0.334 | 0.201 | 0.215 | 0.115 | 0.096 | 0.121 | 0.104 |
| TTCAACT | -0.097 | -0.132 | -0.0487 | -2.65 | -0.0883 | -0.299 | -0.562 | -0.017 | -0.0284 | -0.0968 |
